Reference: patent US20210371489A1, “SITE 2 SINGLE-CHAIN INSULIN ANALOGUES” (Case Western Reserve University, priority 2018, published 2021)
Part of at least one peptide drawing is inferred or uncertain, most often the ends. Bridge positions count the residues as written; N and C are the ends. Ends that are not written are not given here.

Legend:
[1] = Resistance to fibrillation, gentle agitation with Thioflavin T; format: physicochemical; settings: U10 in PBS pH 7.4, 40° C., linear shake 1000 cpms, ThT
male diabetic Lewis rats = test: Potency (blood glucose drop) after subcutaneous injection in STZ-diabetic male Lewis rats; format: in vivo, rat; settings: maximal BG drop in excess of diluent control
[2] = biological target: human type 1 insulin-like growth factor receptor (hIGFR) (Homo sapiens, UniProt P08069); test: IGF-1R cross-reactivity, competitive displacement of 125I labeled human IGF-I; format: binding; settings: ratio of dissociation constants, relative to insulin lispro (KP)
[3] = system: rat myoblast cell line (L6) with high-expression of insulin receptor (IR); test: RT-qPCR mitogenicity probes Cyclin D1 and Cyclin G2; format: cell-based; settings: L6 rat myoblasts; for Cyclin D1/G2 ratio: higher ratio means more mitogenic potential
[4] = Thermodynamic stability by CD-monitored guanidine denaturation; format: physicochemical; settings: 25° C., pH 7.4

Sequence of human type 1 insulin-like growth factor receptor (hIGFR) (P08069 31-736 limits assumed): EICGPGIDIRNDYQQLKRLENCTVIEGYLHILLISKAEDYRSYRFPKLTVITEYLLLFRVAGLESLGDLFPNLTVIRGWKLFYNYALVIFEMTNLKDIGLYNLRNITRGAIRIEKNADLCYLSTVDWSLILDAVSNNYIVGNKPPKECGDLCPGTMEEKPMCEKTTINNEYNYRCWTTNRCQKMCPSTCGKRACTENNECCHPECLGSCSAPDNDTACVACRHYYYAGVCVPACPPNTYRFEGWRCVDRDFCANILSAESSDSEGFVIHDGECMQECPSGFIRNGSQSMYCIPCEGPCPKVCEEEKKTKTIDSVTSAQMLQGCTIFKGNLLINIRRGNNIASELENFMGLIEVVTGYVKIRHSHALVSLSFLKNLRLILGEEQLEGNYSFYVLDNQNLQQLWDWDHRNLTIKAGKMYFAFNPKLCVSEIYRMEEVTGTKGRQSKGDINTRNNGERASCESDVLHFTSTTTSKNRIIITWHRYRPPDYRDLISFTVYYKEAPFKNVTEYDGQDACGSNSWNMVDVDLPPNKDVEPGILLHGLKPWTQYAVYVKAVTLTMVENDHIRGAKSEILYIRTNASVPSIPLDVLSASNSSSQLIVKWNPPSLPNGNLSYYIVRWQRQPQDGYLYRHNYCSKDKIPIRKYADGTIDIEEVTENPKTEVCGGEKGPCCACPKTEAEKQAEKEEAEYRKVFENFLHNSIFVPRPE
Sequence of human type 1 insulin-like growth factor receptor (hIGFR) (P08069 741-1367 partner limits assumed): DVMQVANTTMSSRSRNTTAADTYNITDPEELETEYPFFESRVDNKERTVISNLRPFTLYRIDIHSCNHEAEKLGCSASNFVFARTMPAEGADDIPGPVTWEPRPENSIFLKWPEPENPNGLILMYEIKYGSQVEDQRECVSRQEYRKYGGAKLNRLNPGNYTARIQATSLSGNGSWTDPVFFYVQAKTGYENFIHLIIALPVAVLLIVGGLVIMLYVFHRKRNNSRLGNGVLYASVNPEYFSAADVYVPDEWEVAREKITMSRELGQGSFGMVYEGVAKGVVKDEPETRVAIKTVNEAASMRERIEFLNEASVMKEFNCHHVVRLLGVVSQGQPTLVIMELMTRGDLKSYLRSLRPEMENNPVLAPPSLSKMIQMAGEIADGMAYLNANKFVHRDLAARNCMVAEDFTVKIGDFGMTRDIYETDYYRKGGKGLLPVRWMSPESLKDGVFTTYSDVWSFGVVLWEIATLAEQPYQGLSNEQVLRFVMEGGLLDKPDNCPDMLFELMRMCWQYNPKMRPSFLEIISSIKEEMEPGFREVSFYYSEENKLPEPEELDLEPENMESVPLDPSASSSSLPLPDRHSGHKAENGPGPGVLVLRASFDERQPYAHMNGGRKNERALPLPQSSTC

Compound | U10 Fibril Days [1] | BG Drop (mg/dL) per μg Dose (male diabetic Lewis rats) | IGF1-R (Rel. Aff.) ≤ HI/KP [2] | Cyclin D1 transcription level [3] | Cyclin G2 transcription level [3] | Cyclin D1/G2 ratio [3] | ΔGu free energy of unfolding [4]
CC[C@H](C)[C@@H]1NC(=O)CNC(=O)[C@H](CCCNC(=N)N)NC(=O)[C@H](CCCNC(=N)N)NC(=O)[C@@H]2CCCN2C(=O)CNC(=O)[C@H](CCC(=O)O)NC(=O)[C@H](CCC(=O)O)NC(=O)[C@H]([C@@H](C)O)NC(=O)[C@H](CCC(=O)O)NC(=O)[C@@H]2CCCN2C(=O)[C@H]([C@@H](C)O)NC(=O)[C@H](Cc2ccc(O)cc2)NC(=O)[C@H](Cc2ccccc2)NC(=O)[C@H](Cc2ccccc2)NC(=O)CNC(=O)[C@H](CCCNC(=N)N)NC(=O)[C@H](CCC(=O)O)NC(=O)CNC(=O)[C@@H]2CSSC[C@@H](C(=O)N[C@@H](CC(N)=O)C(=O)O)NC(=O)[C@H](Cc3ccc(O)cc3)NC(=O)[C@H](CC(N)=O)NC(=O)[C@H](CCC(=O)O)NC(=O)[C@H](CC(C)C)NC(=O)[C@H](CCC(N)=O)NC(=O)[C@H](CCC(=O)O)NC(=O)[C@H](CC(C)C)NC(=O)[C@H](CO)NC(=O)[C@@H]3CSSC[C@H](NC(=O)[C@H](CCC(N)=O)NC(=O)[C@H](CCC(=O)O)NC(=O)[C@H](C(C)C)NC1=O)C(=O)N[C@@H](CSSC[C@H](NC(=O)[C@H](CC(C)C)NC(=O)[C@H](Cc1c[nH]cn1)NC(=O)[C@H](CCC(N)=O)NC(=O)[C@H](CC(N)=O)NC(=O)[C@@H](NC(=O)[C@@H](N)Cc1ccccc1)C(C)C)C(=O)NCC(=O)N[C@@H](CO)C(=O)N[C@@H](Cc1c[nH]cn1)C(=O)N[C@@H](CC(C)C)C(=O)N[C@@H](C(C)C)C(=O)N[C@@H](CCC(=O)O)C(=O)N[C@@H](C)C(=O)N[C@@H](CC(C)C)C(=O)N[C@@H](CCC(=O)O)C(=O)N[C@@H](CC(C)C)C(=O)N[C@@H](C(C)C)C(=O)N2)C(=O)N[C@@H](Cc1c[nH]cn1)C(=O)N[C@@H](CO)C(=O)N[C@@H]([C@@H](C)CC)C(=O)N3 [HA8 EA14 EB16 PE EEGPRR] | 103 days | – | – | – | – | – | –
FVNQHLCGSHLVEALYEVCGERGFFYTPETEEGPRRGIVEQCCHSICSLEQLENYCN (disulfide 7-43, 19-56, 42-47) [HA8 EA14 EB17 PE EEGPRR] | 82 days | – | – | – | – | – | –
FVNQHLCGSHLVEALYFVCGERGFFYTPETEEGPRRGIVEQCCHSICSLEQLENYCN (disulfide 7-43, 19-56, 42-47) [HA8 EA14 FB17 PE EEGPRR] | 131 days | 27.2 mg/dL per μg | 16% | – | – | – | –
FVNQHLCGSHLVEALYLVCGERGFFYTEPTEAGPRRGIVEQCCESICSLEQLQNYCN (disulfide 7-43, 19-56, 42-47) [EA8 EA14 QA17 EP EAGPRR] | 131 days | 17.8 mg/dL per μg | – | 2.02 | 0.49 | 4.12 | –
FVNQHLCGSHLVEALYLVCGERGFFYTEPTEAGPRRGIVEQCCESICSLEQLRNYCN (disulfide 7-43, 19-56, 42-47) [EA8 EA14 RA17 EP EAGPRR] | 292 days | 12.4 mg/dL per μg | 5% | 2.8 | 0.63 | 4.44 | 4.8 kcal/mol
FVNQHLCGSHLVEALYLVCGERGFFYTEPTEAGPRRGIVEQCCHSICSLEQLQNYCN (disulfide 7-43, 19-56, 42-47) [HA8 EA14 QA17 EP EAGPRR] | 131 days | – | – | 1.46 | 0.3 | 4.87 | –
FVNQHLCGSHLVEALYLVCGERGFFYTEPTEAGPRRGIVEQCCHSICSLEQLRNYCN (disulfide 7-43, 19-56, 42-47) [HA8 EA14 RA17 EP EAGPRR] | 20 days | 18.5 mg/dL per μg | – | 1.49 | 0.51 | 2.92 | –
FVNQHLCGSHLVEALYLVCGERGFFYTEPTEAGPRRGIVEQCCHSICSWEQLENYCN (disulfide 7-43, 19-56, 42-47) [HA8 WA13 EA14 EP EAGPRR] | 103 days | – | – | – | – | – | –
FVNQHLCGSHLVEALYLVCGERGFFYTPETEAGPRRGIVEQCCESICSLEQLQNYCN (disulfide 7-43, 19-56, 42-47) [EA8 EA14 QA17 PE EAGPRR] | 209 days | 16.8 mg/dL per μg | 11% | 3.9 | 0.56 | 6.96 | 5.2 kcal/mol
FVNQHLCGSHLVEALYLVCGERGFFYTPETEAGPRRGIVEQCCESICSLEQLRNYCN (disulfide 7-43, 19-56, 42-47) [EA8 EA14 RA17 PE EAGPRR] | 209 days | 11.3 mg/dL per μg | 25% | 4.5 | 0.67 | 6.72 | 4.4 kcal/mol
FVNQHLCGSHLVEALYLVCGERGFFYTPETEAGPRRGIVEQCCESICSLLQLQNYCN (disulfide 7-43, 19-56, 42-47) [EA8 LA14 QA17 PE EAGPRR] | 111 days | – | – | – | – | – | –
FVNQHLCGSHLVEALYLVCGERGFFYTPETEAGPRRGIVEQCCHSICSLEQLQNYCN (disulfide 7-43, 19-56, 42-47) [HA8 EA14 QA17 PE EAGPRR] | 209 days | 15.1 mg/dL per μg | 18% | 3.1 | 0.45 | 6.89 | 5 kcal/mol
FVNQHLCGSHLVEALYLVCGERGFFYTPETEAGPRRGIVEQCCHSICSLEQLRNYCN (disulfide 7-43, 19-56, 42-47) [HA8 EA14 RA17 PE EAGPRR] | 131 days | – | – | 1.72 | 0.85 | 2.02 | –
FVNQHLCGSHLVEALYLVCGERGFFYTPETEAGPRRGIVEQCCHSICSWEQLQNYCN (disulfide 7-43, 19-56, 42-47) [HA8 WA13 EA14 PE EAGPRR] | 125 days | – | – | – | – | – | –
FVNQHLCGSHLVEALYLVCGERGFFYTPETEEGPRRGIVEQCCHSICSFEQLENYCN (disulfide 7-43, 19-56, 42-47) [HA8 EA14 FA13 PE EEGPRR] | 82 days | – | – | – | – | – | –
FVNQHLCGSHLVEALYNVCGERGFFYTPETEEGPRRGIVEQCCHSICSLEQLENYCN (disulfide 7-43, 19-56, 42-47) [HA8 EA14 NB17 PE EEGPRR] | – | 15.2 mg/dL per μg | 2% | – | – | – | –
